Assay results from the supplement of paper PMC8728848.
The list shows a part of the results.

Key:
Experiment in all cases: glycan array binding signal (z-score within array); higher = stronger binding
Details in all cases: glycan notation: IUPAC condensed, linker removed
[1] = target: Gal(b1-4)GlcNAc(b1-3)Gal(b1-4)GlcNAc(b1-2)Man(a1-3)[Gal(b1-4)GlcNAc(b1-3)Gal(b1-4)GlcNAc(b1-2)Man(a1-6)]Man(b1-4)GlcNAc(b1-4)[Fuc(a1-6)]GlcNAc
Procedure, shortened: (§1)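 From the Consortium for Functional Glycomics database, 3228 arrays were curated, keeping only those whose protein sequence was available. Binding is given as a within-array Z-score averaged across arrays sharing a protein sequence and across linkers. Negative Z-scores can be read as non-binding.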

[2] = target: Gal(b1-4)GlcNAc(b1-3)Gal(b1-4)GlcNAc(b1-2)[Gal(b1-4)GlcNAc(b1-3)Gal(b1-4)GlcNAc(b1-6)]Man(a1-6)[Gal(b1-4)GlcNAc(b1-3)Gal(b1-4)GlcNAc(b1-2)Man(a1-3)]Man(b1-4)GlcNAc(b1-4)GlcNAc
Procedure, shortened: as §1

[3] = target: Gal(b1-4)GlcNAc(b1-3)Gal(b1-4)GlcNAc(b1-2)[Gal(b1-4)GlcNAc(b1-3)Gal(b1-4)GlcNAc(b1-6)]Man(a1-6)[Gal(b1-4)GlcNAc(b1-3)Gal(b1-4)GlcNAc(b1-2)Man(a1-3)]Man(b1-4)GlcNAc(b1-4)[Fuc(a1-6)]GlcNAc
Procedure, shortened: as §1

[4] = target: Gal(b1-4)GlcNAc(b1-3)Gal(b1-4)GlcNAc(b1-3)Gal(b1-4)GlcNAc
Procedure, shortened: as §1

[5] = target: Gal(b1-4)GlcNAc(b1-3)Gal(b1-4)GlcNAc(b1-3)Gal(b1-4)GlcNAc(b1-2)Man(a1-3)[Gal(b1-4)GlcNAc(b1-3)Gal(b1-4)GlcNAc(b1-3)Gal(b1-4)GlcNAc(b1-2)Man(a1-6)]Man(b1-4)GlcNAc(b1-4)GlcNAc
Procedure, shortened: as §1

[6] = target: Gal(b1-4)GlcNAc(b1-3)Gal(b1-4)GlcNAc(b1-3)Gal(b1-4)GlcNAc(b1-2)Man(a1-3)[Gal(b1-4)GlcNAc(b1-3)Gal(b1-4)GlcNAc(b1-3)Gal(b1-4)GlcNAc(b1-2)Man(a1-6)]Man(b1-4)GlcNAc(b1-4)[Fuc(a1-6)]GlcNAc
Procedure, shortened: as §1

[7] = target: Gal(b1-4)GlcNAc(b1-3)Gal(b1-4)GlcNAc(b1-3)Gal(b1-4)GlcNAc(b1-2)[Gal(b1-4)GlcNAc(b1-3)Gal(b1-4)GlcNAc(b1-3)Gal(b1-4)GlcNAc(b1-6)]Man(a1-6)[Gal(b1-4)GlcNAc(b1-3)Gal(b1-4)GlcNAc(b1-3)Gal(b1-4)GlcNAc(b1-2)Man(a1-3)]Man(b1-4)GlcNAc(b1-4)[Fuc(a1-6)]GlcNAc
Procedure, shortened: as §1

[8] = target: Gal(b1-4)GlcNAc(b1-3)Gal(b1-4)GlcNAc(b1-3)Gal(b1-4)GlcNAc(b1-3)Gal(b1-4)GlcNAc(b1-2)Man(a1-3)[Gal(b1-4)GlcNAc(b1-3)Gal(b1-4)GlcNAc(b1-3)Gal(b1-4)GlcNAc(b1-3)Gal(b1-4)GlcNAc(b1-2)Man(a1-6)]Man(b1-4)GlcNAc(b1-4)GlcNAc
Procedure, shortened: as §1

[9] = target: Gal(b1-4)GlcNAc(b1-3)Gal(b1-4)GlcNAc(b1-3)Gal(b1-4)GlcNAc(b1-3)Gal(b1-4)GlcNAc(b1-2)Man(a1-3)[Gal(b1-4)GlcNAc(b1-3)Gal(b1-4)GlcNAc(b1-3)Gal(b1-4)GlcNAc(b1-3)Gal(b1-4)GlcNAc(b1-2)Man(a1-6)]Man(b1-4)GlcNAc(b1-4)[Fuc(a1-6)]GlcNAc
Procedure, shortened: as §1

[10] = target: Gal(b1-4)GlcNAc(b1-3)Gal(b1-4)GlcNAc(b1-3)Gal(b1-4)GlcNAc(b1-3)Gal(b1-4)GlcNAc(b1-2)[Gal(b1-4)GlcNAc(b1-3)Gal(b1-4)GlcNAc(b1-3)Gal(b1-4)GlcNAc(b1-3)Gal(b1-4)GlcNAc(b1-6)]Man(a1-6)[Gal(b1-4)GlcNAc(b1-3)Gal(b1-4)GlcNAc(b1-3)Gal(b1-4)GlcNAc(b1-3)Gal(b1-4)GlcNAc(b1-2)Man(a1-3)]Man(b1-4)GlcNAc(b1-4)[Fuc(a1-6)]GlcNAc
Procedure, shortened: as §1

[11] = target: Gal(b1-4)GlcNAc(b1-3)Gal(b1-4)GlcNAc(b1-3)Gal(b1-4)GlcNAc(b1-3)Gal(b1-4)GlcNAc(b1-3)Gal(b1-4)GlcNAc(b1-2)Man(a1-3)[Gal(b1-4)GlcNAc(b1-3)Gal(b1-4)GlcNAc(b1-3)Gal(b1-4)GlcNAc(b1-3)Gal(b1-4)GlcNAc(b1-3)Gal(b1-4)GlcNAc(b1-2)Man(a1-6)]Man(b1-4)GlcNAc(b1-4)GlcNAc
Procedure, shortened: as §1

[12] = target: Gal(b1-4)GlcNAc(b1-3)Gal(b1-4)GlcNAc(b1-3)Gal(b1-4)GlcNAc(b1-3)Gal(b1-4)GlcNAc(b1-3)Gal(b1-4)GlcNAc(b1-2)Man(a1-3)[Gal(b1-4)GlcNAc(b1-3)Gal(b1-4)GlcNAc(b1-3)Gal(b1-4)GlcNAc(b1-3)Gal(b1-4)GlcNAc(b1-3)Gal(b1-4)GlcNAc(b1-2)Man(a1-6)]Man(b1-4)GlcNAc(b1-4)[Fuc(a1-6)]GlcNAc
Procedure, shortened: as §1

[13] = target: Gal(b1-4)GlcNAc(b1-3)Gal(b1-4)GlcNAc(b1-3)Gal(b1-4)GlcNAc(b1-3)Gal(b1-4)GlcNAc(b1-3)Gal(b1-4)GlcNAc(b1-2)[Gal(b1-4)GlcNAc(b1-3)Gal(b1-4)GlcNAc(b1-3)Gal(b1-4)GlcNAc(b1-3)Gal(b1-4)GlcNAc(b1-3)Gal(b1-4)GlcNAc(b1-6)]Man(a1-6)[Gal(b1-4)GlcNAc(b1-3)Gal(b1-4)GlcNAc(b1-3)Gal(b1-4)GlcNAc(b1-3)Gal(b1-4)GlcNAc(b1-3)Gal(b1-4)GlcNAc(b1-2)Man(a1-3)]Man(b1-4)GlcNAc(b1-4)[Fuc(a1-6)]GlcNAc
Procedure, shortened: as §1

[14] = target: Gal(b1-4)GlcNAc(b1-3)Gal(b1-4)GlcNAc(b1-3)Gal(b1-4)GlcNAc(b1-3)Gal(b1-4)GlcNAc(b1-3)Gal(b1-4)GlcNAc(b1-3)Gal(b1-4)GlcNAc(b1-2)Man(a1-3)[Gal(b1-4)GlcNAc(b1-3)Gal(b1-4)GlcNAc(b1-3)Gal(b1-4)GlcNAc(b1-3)Gal(b1-4)GlcNAc(b1-3)Gal(b1-4)GlcNAc(b1-3)Gal(b1-4)GlcNAc(b1-2)Man(a1-6)]Man(b1-4)GlcNAc(b1-4)GlcNAc
Procedure, shortened: as §1

[15] = target: Gal(b1-4)GlcNAc(b1-3)Gal(b1-4)GlcNAc(b1-3)GalNAc
Procedure, shortened: as §1

[16] = target: Gal(b1-4)GlcNAc(b1-3)Gal(b1-4)GlcNAc(b1-3)[Gal(b1-4)GlcNAc(b1-3)Gal(b1-4)GlcNAc(b1-6)]GalNAc
Procedure, shortened: as §1

[17] = target: Gal(b1-4)GlcNAc(b1-3)Gal(b1-4)GlcNAc(b1-6)[Gal(b1-3)]GalNAc
Procedure, shortened: as §1

[18] = target: Gal(b1-4)GlcNAc(b1-3)Gal(b1-4)[Fuc(a1-3)]GlcNAc(b1-3)Gal(b1-4)[Fuc(a1-3)]GlcNAc
Procedure, shortened: as §1

[19] = target: Gal(b1-4)GlcNAc(b1-3)GalNAc
Procedure, shortened: as §1

[20] = target: Gal(b1-4)GlcNAc(b1-3)[Fuc(a1-3)GlcNAc(b1-6)]Gal(b1-4)Glc
Procedure, shortened: as §1

[21] = target: Gal(b1-4)GlcNAc(b1-3)[Gal(b1-4)GlcNAc(b1-6)]Gal(b1-4)GlcNAc
Procedure, shortened: as §1

[22] = target: Gal(b1-4)GlcNAc(b1-3)[GlcNAc(b1-6)]Gal(b1-4)GlcNAc
Procedure, shortened: as §1

B1: PFL (Pseudomonas fluorescens) (protein)
chain: MSKYAVANQWGGSSAPWHPGGTWVLGARDNQNVVAIEIKSGDGGKSFTGTMTYAGEGPIGFKAQRTGQNQYNVENQWGGNDAPWHPGGKWVIGGRDNQNVIALSVTSSDGGKNLSGTNTYANEGPIGFRGQIE
glycan array binding signal (z-score) [1]: -0.034
glycan array binding signal (z-score) [2]: 0.001
glycan array binding signal (z-score) [3]: -0.1
glycan array binding signal (z-score) [4]: -0.112
glycan array binding signal (z-score) [5]: -0.101
glycan array binding signal (z-score) [6]: -0.099
glycan array binding signal (z-score) [7]: -0.107
glycan array binding signal (z-score) [8]: -0.111
glycan array binding signal (z-score) [9]: -0.103
glycan array binding signal (z-score) [10]: -0.103
glycan array binding signal (z-score) [11]: -0.104
glycan array binding signal (z-score) [12]: 0.054
glycan array binding signal (z-score) [13]: -0.075
glycan array binding signal (z-score) [14]: -0.098
glycan array binding signal (z-score) [15]: -0.111
glycan array binding signal (z-score) [16]: -0.108
glycan array binding signal (z-score) [17]: -0.105
glycan array binding signal (z-score) [18]: -0.114
glycan array binding signal (z-score) [19]: -0.116
glycan array binding signal (z-score) [20]: -0.116
glycan array binding signal (z-score) [21]: -0.112
glycan array binding signal (z-score) [22]: -0.113
